We go through 109 sequences from the supplement of paper PMC3334620.

The full ranking holds about 33,000 sequences; the median of “E-score (-0.5 to 0.5)” is about -0.054, and the highest 2% start at about 0.39. The list shows a part of the results.

The experiment addresses Ylr278c (UniProt Q05854). Briefly: PBM E-score (8-mer binding enrichment) (E-score (-0.5 to 0.5)); higher = stronger / more preferred TF binding; most listed sequences are background and not binding sites. The note with it: protein concentration: 200 nM; construct: GST-DNA-binding domain. An outline of the steps:
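Bound GST-tagged yeast transcription factors, applied at about 100-200 nM to double-stranded universal all-10-mer Agilent arrays, were detected with fluorescent anti-GST. Scans were normalised with masliner. A modified Wilcoxon-Mann-Whitney statistic, the E-score, was assigned to each ungapped eight-base word pooled with its reverse complement by the Universal PBM Analysis Suite.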
On to AAAAGGGC, for which the “PBM E-score” value was -0.238.

Take AGGTAGAA: the “PBM E-score” value was -0.0888.

On to CGAGTTGA, for which the “PBM E-score” value came to 0.0194.

In the case of GCACGGAA, the “PBM E-score” value amounted to 0.259. As for GCGCATCA, the figure is -0.0582. As for AAAGGTGC, the figure is -0.152; as for GGGACTAA, -0.0466. The value for AGCTGCTC was -0.151; that for CAGCTTAC was -0.118; that for AAGTCCAA was 0.0759.

For the sequence ATCGTACC, the “PBM E-score” value is -0.0449. The value for CACGCAAA was -0.0811; that for AATTTCCA was 0.169. As for GGTAGGCA, the figure is -0.151; as for TACAGGGA, -0.0236.

In the case of AAGCGACC, the “PBM E-score” value was determined as 0.133.

Consider CGTCGGAC, for which the “PBM E-score” value was determined as 0.397.

Consider AACGACCA, for which the “PBM E-score” value was -0.166. As for GGGGGCTA, the figure is -0.268. As for AGAACTGG, the figure is 0.0018. As to GGAGGACA, the “PBM E-score” value is 0.0763. As for ATGCTTCA, the figure is -0.152. As to AATGGCAT, the “PBM E-score” value amounted to 0.222. As for AATACTGA, the figure is -0.238; as for GGACCAGA, -0.0147; as for TAAGACCA, -0.26.

For ACATACGG, the “PBM E-score” value came out at 0.114. As for GGTCTAAA, the figure is -0.171.

Consider CTCCACCA, for which the “PBM E-score” value was -0.135. As for ACTTTCTA, the figure is -0.254; as for GAAACAAC, 0.0746.

In the case of CGAGCTGC, the “PBM E-score” value is -0.00491. As to AGTCCCCG, the “PBM E-score” value was 0.158. The value for AGTGAGAT was -0.126; that for AATTGATC was 0.00491. As for CCGCTGGC, the figure is -0.0712; as for GAAACACC, 0.0566; as for CATAAGGG, 0.0528. The value for GCCCACTA was -0.275; that for AGCCTATA was -0.202; that for AGGGTCGG was 0.226. On to AGAGCACT, for which the “PBM E-score” value is -0.193. As for CGGGTATA, the figure is 0.279. As for CCCTTGCG, the figure is -0.263.

ATGCGTAA: the “PBM E-score” value was -0.1. As for TATACCCA, the figure is -0.0534; as for CGCAAGTC, 0.0799; as for AGTGTATC, -0.0641. As for ATGACCGA, the figure is 0.0898; as for CTACCCGA, -0.0608. As for AGAGGCGG, the figure is 0.0852; as for AAACTCTG, -0.126; as for CGGGCACC, 0.287. As to AAAAGTTC, the “PBM E-score” value was found to be 0.127. In the case of ATTTTCTA, the “PBM E-score” value was -0.12. The value for GGTACCAA was -0.00851; that for TAGTGAAA was -0.148. For CGTACTAG, the “PBM E-score” value is -0.259. As for GGACCTTA, the figure is 0.0338; as for CCCTAGGC, -0.0625; as for CACTGTCC, -0.052.

As to AACTGATA, the “PBM E-score” value was -0.069.

As for CTGCAACC, the “PBM E-score” value is -0.27. In the case of CATTTGAA, the “PBM E-score” value turned out to be 0.0217. As for CTCTCCGC, the figure is 0.325; as for GTACTTTA, -0.191. For the sequence CCCAGCCG, the “PBM E-score” value amounted to 0.103. As for AATAGATG, the figure is 0.0154. As for GTTAGTTA, the figure is 0.116; as for CGTGCTGC, -0.223; as for GCCGAGCC, 0.198.

With ACACTCGA, the “PBM E-score” value was -0.167. As for CACGGGAC, the figure is 0.165; as for GCCCAAGC, -0.0617; as for AATGCGAC, 0.139.

Regarding GCAGCCGC, the “PBM E-score” value was 0.0664. For CTAAATTA, the “PBM E-score” value was 0.00555. The value for GCTTGGAC was -0.147; that for AGTAGCGC was 0.0543. With GGTCGCCA, the “PBM E-score” value is -0.157.

As to AAAACTTG, the “PBM E-score” value is -0.159.

For the sequence CCATCCTA, the “PBM E-score” value is -0.106. Consider CGGGCCAC, for which the “PBM E-score” value amounted to 0.201. As to TAGAATCA, the “PBM E-score” value was -0.0548. As to ACTAGTGA, the “PBM E-score” value was -0.227. As to ATTAACCC, the “PBM E-score” value worked out at 0.129. The value for CTCCCTTA was -0.173; that for CCCATGTC was -0.0988. As for CCCAATGA, the figure is -0.195; as for AAGGTGCT, -0.154; as for TCGAAAGA, -0.245. The value for CTAAGCAC was -0.0493. Turning to GACTAGGC, the “PBM E-score” value was -0.18. The value for CTCCATCC was -0.085.

With AACAACCA, the “PBM E-score” value is -0.187. As for GGTATGGA, the “PBM E-score” value stood at 0.0461. As for ACGCGTAG, the figure is -0.00027. On to CATCACGG, for which the “PBM E-score” value amounted to 0.1.

GGATCTAC: the “PBM E-score” value is -0.0619. The value for ATACAAGA was -0.181.

In the case of AACTGACC, the “PBM E-score” value is 0.152. The value for CGATGTAA was 0.0219; that for AATGAGCG was 0.0729.

Turning to CGATATCC, the “PBM E-score” value was determined as 0.264. As for AATTGGTG, the figure is -0.213; as for GCGTCCAC, 0.0269; as for ACGGCGTC, 0.275.

With CGTATAAC, the “PBM E-score” value was -0.101. The value for GCTTAAAA was -0.0787.
